Experimental findings from PubChem BioAssay AID463173 (ICCB-Longwood Screening Facility, Harvard Medical School, 2010) are described below.

Out of some 52,000 compounds screened, about 4,300 (8.3%) were called active. No stated cut-off is given here; in the data, active means survival mostly below about 52% (no sharp cut-off); inactive means mostly above about 56%. The list shows a part of the results.

This assay deals with DeltatarO mutant. Description: S. aureus survival, RN4220 and DeltatarO strains – OD600, teichoic acid synthesis inhibitors, primary screen (AID 463173). As to conditions: S. aureus RN4220 wild type/DeltatarO growth, OD600, 18 h, stronger effect = lower value, screened at 18.75 µg/mL (by protocol).
Turning to `Cc1ccc(/C=C/c2onc(C)c2S(=O)(=O)N2CCC(C(=O)N3CCN(c4cccc(C)c4)C(C)C3)CC2)cc1` (centres undefined), the survival is inactive: 67%.

On to `Cc1nn(C(C)C(=O)NC2CCC(C)CC2)c(=O)c2c1sc1ccccc12` (centres undefined), for which the survival was inactive: 58%.

`CCc1nc(-c2cc(S(=O)(=O)N3CCN(c4ccc(OC)cc4)CC3)ccc2OC)no1`: the survival is inactive: 49%.

For `CCc1ccc(OCc2nc(-c3ccc(-n4cccc4)cc3)no2)cc1`, the survival was inactive: 82%.

On to `CC(C)CCOc1ccc(C2N=C(N)Nc3nc4ccccc4n32)cc1` (centres undefined), for which the survival was active: -3%.

Regarding `CCOc1ccc(-c2cn3c(n2)sc2cc(C(=O)NCCc4ccc(OC)cc4OC)ccc23)cc1`, the survival is active: 40%.

`O=C(Nc1ccc(CN2CCCCC2)cc1)c1cccnc1Cl`: the survival is inactive: 71%.

Consider `COc1ccc(S(=O)(=O)c2cnc3cc(OC)c(OC)cc3c2N2CCCC(C)C2)cc1` (centres undefined), for which the survival was inactive: 116%.

In the case of `O=C(O)c1ccc(Cn2cnc3cccnc32)cc1`, the survival is inactive: 61%.

With `CC1CCN(CC2CCN(C(=O)NCc3ccc(F)cc3)CC2)CC1`, the survival is inactive: 75%.

For the compound `COc1ccc(Cn2c(CO)cnc2SCC(=O)Nc2ccc3c(c2)OCCO3)cc1`, the survival was inactive: 88%.

Take `COc1cccc(COC(=O)c2ccc(-c3nnn(Cc4cccc(OC)c4)n3)cc2)c1`: the survival was inactive: 67%.

In the case of `O=C(O)Cn1c(-c2cccs2)cc2cc(Cl)ccc21`, the survival is inactive: 75%.

In the case of `O=C(Nc1cccc(C(F)(F)F)c1)c1cc(-c2ccc(Cl)s2)nc2ccccc12`, the survival was inactive: 66%.

On to `CCOc1ccc(NC2SC(=O)N(Cc3ccccc3)C2=O)cc1` (centres undefined), for which the survival was active: 42%.

In the case of `COc1cccc(NC(=O)NCCCNc2nc3cc(C)cc(C)c3cc2C#N)c1`, the survival was inactive: 59%.

For `COc1ccc(S(=O)(=O)NCc2cccs2)cc1C(C)(C)C`, the survival was inactive: 77%.

Take `CCOc1ccccc1NC(=O)C(CC(C)C)NC(=O)C1CCC(C)CC1` (centres undefined): the survival is inactive: 105%.

Take `COc1cccc2c1cc1c(=O)n(CC(=O)N3CCN(c4cccc(C(F)(F)F)c4)CC3)nc(C)n12`: the survival is inactive: 79%.

`CCCCN(CC)C(=O)CSc1nc2n[nH]c(C)c2c(=N)n1-c1cccc(C)c1`: the survival is inactive: 88%.

In the case of `COc1ccc(-n2nc3ccc(NC(=O)c4ccc(C#N)cc4F)cc3n2)cc1Cl`, the survival was inactive: 66%.

On to `O=C(COc1ccccc1Cl)Nc1nnc(S(=O)(=O)N2CCCC2)s1`, for which the survival is active: 39%.

Turning to `Cc1ccc(NC(=O)CCc2c(C)nn(-c3ccc(N4CCOCC4)nn3)c2C)c(C)c1`, the survival is inactive: 69%.

Take `CCn1c(C(=O)NCc2ccccc2OC)cc2sccc21`: the survival is inactive: 99%.

As to `CCOc1ccccc1CNC(=O)C1CCN(S(=O)(=O)c2c(C)noc2/C=C/c2ccccc2F)CC1`, the survival is inactive: 90%.

On to `CC1=C(c2ccc(C(C)C)cc2)S(=O)(=O)N=C1N1CCC(C(=O)NCc2ccccc2)CC1`, for which the survival is active: -1%.

For `COc1ccc(CC(=O)Nc2cc(-c3cn4cccnc4n3)ccc2C)cc1OC`, the survival is inactive: 77%.

Regarding `COc1ccc(-n2ccnc(NCc3cccs3)c2=O)cc1OC`, the survival is inactive: 85%.

Regarding `Cn1c(-n2cccc2)c(-c2c(-c3ccc(F)cc3)[nH]c3c2c(=O)n(C)c(=O)n3C)c(=O)n(C)c1=O`, the survival is inactive: 63%.

On to `COCCCNC(=O)Cn1nc(N2CCN(c3ccccc3)CC2)ccc1=O`, for which the survival was inactive: 91%.

For the compound `CCCSc1oc(-c2ccco2)nc1S(=O)(=O)c1ccc(Br)cc1`, the survival was inactive: 55%.

In the case of `COCCn1ccc2c(OCC(=O)Nc3c(C)cc(C)cc3C)cccc2c1=O`, the survival was inactive: 63%.

For the compound `Cc1ccc(S(=O)(=O)n2nc(-c3ccc(Cl)cc3)nc2NCc2ccccc2)cc1`, the survival is inactive: 102%.

In the case of `O=c1[nH]c2ccc(S(=O)(=O)NC3CCCCC3)cc2[nH]1`, the survival was active: 62%.

Regarding `CC1CCc2c(sc3nnn(Cc4cccc(C(=O)OC(C)C)c4)c(=O)c23)C1` (centres undefined), the survival is inactive: 78%.

As to `CC(=O)N1CCc2c(sc3c2c(=O)n(-c2ccc(F)cc2)c(=O)n3Cc2ccc(C#N)cc2)C1`, the survival was inactive: 107%.

For `COc1ccc(OC)c(N(CC(=O)N2CCN(c3ccccc3F)CC2)S(C)(=O)=O)c1`, the survival was inactive: 78%.

On to `Cc1cc(C)cc(-n2ccnc(NCCc3ccccc3)c2=O)c1`, for which the survival is inactive: 101%.

Regarding `COC(CN(C)S(=O)(=O)c1ccc(Br)cc1)OC`, the survival was inactive: 80%.

Turning to `CCOC(=O)c1cc2c(=O)n3ccccc3nc2n(CC(C)C)c1=NC(=O)COc1ccc(Cl)cc1`, the survival was inactive: 136%.

As to `COc1ccc(-c2nc(CS(=O)CC(=O)NCCc3ccccc3)c(C)o2)cc1OC` (centres undefined), the survival was inactive: 91%.

For the compound `CC1CCCCN1c1c(S(=O)(=O)c2ccc(Cl)cc2)cnc2ccccc12` (centres undefined), the survival is inactive: 102%.

Turning to `Cc1ccc(CCNC(=O)c2sc3ncccc3c2-n2c(C)ccc2C)cc1`, the survival is inactive: 64%.

`CCC(=O)Nc1ccc(CC)cc1-c1nc2ccccc2n(CC(=O)Nc2cccc(OC)c2)c1=O`: the survival was inactive: 67%.

As for `Cc1ccccc1NC(=O)c1c(NC(=O)c2ccccc2)sc2c1CCC2`, the survival was inactive: 126%.

For the compound `COc1ccc(-c2cn3nc(N4CCC(C(=O)Nc5ccccc5OC)CC4)sc3n2)cc1`, the survival was inactive: 68%.

Regarding `Fc1cccc(-c2cc3nc4c(c(NCCCN5CCOCC5)n3n2)CCCC4)c1`, the survival is inactive: 100%.

For the compound `CCN(CC)C(=O)c1sc2c(c1C)c(=O)n(-c1ccccc1)c(=O)n2Cc1c(C)cc(C)cc1C`, the survival was inactive: 79%.

Turning to `Cn1c(SCC(=O)NC(C)(C)C)nc2cccnc21`, the survival is inactive: 80%.

Regarding `CCOc1ccc(NC(=O)CC2C(=O)N(c3ccccc3)C(=O)N2CCc2cccs2)cc1` (centres undefined), the survival is inactive: 54%.

In the case of `Cc1ccc(Cl)cc1-n1nnc(-c2nsc(NC(=O)c3ccccc3Cl)n2)c1C`, the survival was active: 6%.

Consider `COc1ccc(OC)c(NC(=O)CCCc2nnc3n(C(C)C)c(=O)c4sccc4n23)c1`, for which the survival was inactive: 74%.

On to `Cc1ccc(C)c(N2CCN(C(=O)c3cnn(C(C)(C)C)c3C3CCN(C(=O)OC(C)(C)C)CC3)CC2)c1`, for which the survival was inactive: 91%.

`Cc1ccc2oc(C(=O)Nc3ccc(S(=O)(=O)N4CCCC(C)C4)cc3)cc(=O)c2c1` (centres undefined): the survival is inactive: 69%.

With `CCc1ccc(-n2c(=O)c3ccccc3n(CC(=O)NCCc3ccc(OC)c(OC)c3)c2=O)cc1`, the survival is inactive: 91%.

On to `COc1ccc(Cl)cc1NC(=O)NCCn1c(=O)oc2ccc(C)cc21`, for which the survival was active: 46%.

Take `COc1ccc(C)cc1NC(=O)N1CCC(CN2CCOCC2)CC1`: the survival was inactive: 71%.

In the case of `Cc1ccc(N(CC(=O)N2CCN(c3cccc(Cl)c3)CC2)S(=O)(=O)c2c(C)noc2C)cc1`, the survival is inactive: 73%.

Turning to `COc1ccc(NC(=O)C(Cc2c[nH]c3ccccc23)NC(=O)OC(C)(C)C)cc1` (centres undefined), the survival is inactive: 48%.

In the case of `Cc1ccn2c(Nc3c(C)cccc3C)c(-c3ccsc3)nc2c1`, the survival was active: 35%.

Take `COc1ccc(N2CC(NC(=O)c3cccs3)CC2=O)cc1` (centres undefined): the survival is inactive: 89%.

With `N#Cc1c[nH]n2c(=O)cc(Cc3ccccc3)nc12`, the survival is inactive: 68%.

For `O=C(CSc1nc(=O)[nH]c2c1CCCC2)Nc1ccc(Cl)c(Cl)c1`, the survival is inactive: 99%.

Regarding `CC1(C)Cc2c(ccc3ccccc23)CN1`, the survival is inactive: 108%.

Regarding `CCN(CC)CC(=O)Nc1sc2c(c1C#N)CCCC2`, the survival was inactive: 76%.

In the case of `COC(=O)/C(C#N)=C/c1ccc(C)s1`, the survival was inactive: 69%.

Turning to `CC(C)C(NS(=O)(=O)c1ccc2c(c1)oc(=O)n2C)C(=O)N1CCN(c2cccc(Cl)c2)CC1` (centres undefined), the survival was inactive: 101%.

Regarding `CCN(CC)C(=O)c1ccc2c(c1)N(Cc1c(F)cccc1Cl)C(=O)c1ccccc1S2`, the survival was inactive: 73%.

For `COc1ccc(CNC(=O)c2nc(SCc3ccc(C)cc3)ncc2Cl)cc1`, the survival was inactive: 67%.

As for `CCc1nnc(NC(=O)CSc2nccn2Cc2ccc(C)cc2)s1`, the survival was inactive: 78%.

`COc1ccccc1NC(=O)CSc1nc(O)c(C/C=C/c2ccccc2)c(=O)[nH]1`: the survival is inactive: 89%.

As to `COc1ccc(Cn2c(=O)n(-c3ccc(F)c(Cl)c3)c(=O)c3c2c2cc(OC)ccc2n3C)cc1`, the survival is inactive: 86%.

In the case of `CCOC(=O)c1c(S(=O)(=O)N2CCC(C(=O)NCc3cccc(C)c3)CC2)c(C)n(C)c1C`, the survival is inactive: 94%.

In the case of `O=C(O)CCC(=O)Nc1ccc2c(c1)oc1ccccc12`, the survival is inactive: 86%.

As for `CCOc1cccc2sc(N3CCN(C(=O)c4ccc5c(c4)CCCC5)CC3)nc12`, the survival was inactive: 60%.

Consider `Cc1cc(N2CCN(C)CC2)nc2ccc(NC(=O)c3ccc(C(C)(C)C)cc3)cc12`, for which the survival is active: -3%.

With `CCN(CC)S(=O)(=O)c1ccc(NC(=O)c2cc3ccc4cccnc4c3[nH]2)cc1`, the survival was inactive: 89%.

Turning to `CN(Cc1ccccc1)c1nnc(NC(=O)Nc2cccc(Br)c2)s1`, the survival was inactive: 97%.

As for `Cc1ccc(-n2nc(C(=O)Nc3ccc(F)cc3Cl)c(=O)n(C)c2=O)cc1`, the survival is inactive: 69%.

Regarding `Cc1ccc(C(=O)n2nc(C)c(S(=O)(=O)N3CCCCCC3)c2C)cc1C`, the survival was inactive: 61%.

As for `CCC(C)N1CCN(C2CCCCC2)CC1` (centres undefined), the survival is inactive: 81%.

Regarding `COc1ccccc1-c1cc(C(F)(F)F)nc(S(=O)(=O)CCCC(=O)Nc2cc(Br)ccc2O)n1`, the survival was active: 45%.

Turning to `O=C(NCCc1ccccc1)C(=O)NCC(c1cccnc1)N1CCN(c2ccc(F)cc2)CC1` (centres undefined), the survival was inactive: 103%.

Turning to `CCC(=O)N1CCc2cc(CNC(=O)Nc3ccc(OC)cc3OC)ccc21`, the survival is inactive: 71%.

Take `O=C(NC1CCCC1)C(c1ccccc1)N(C(=O)c1ccco1)C1CCCC1` (centres undefined): the survival is inactive: 79%.

As to `CC(=O)c1ccc(NC(=O)Cn2c3ncccc3c(=O)n2-c2ccc(C)cc2)cc1`, the survival was inactive: 112%.

In the case of `COc1ccc(NC(=O)c2cnc(SCC(=O)Nc3nc4ccc(C)cc4s3)n(C)c2=O)cc1`, the survival was inactive: 74%.

Take `CCc1ccc(C2C(C(=O)Nc3ccccc3)=C(C)Nc3nc(SCC(=O)c4ccc(C)cc4)nn32)cc1` (centres undefined): the survival is inactive: 55%.

As to `CC(C)C(=O)N(C)c1nnc(-c2ccc(F)cc2)s1`, the survival was inactive: 108%.
